Experimental data reported in PubChem BioAssay AID686978 (National Center for Advancing Translational Sciences (NCATS), 2013).
The whole screen tested about 420,000 compounds, of which about 64,000 (15%) were called active. The inconclusive results got no clear call from the source; some entries with a clear call stand among them for comparison. Calls come from the whole dose curve; as a rule, active = well fitted inhibition curve with a large enough effect; inconclusive = small, poorly fitted or top-dose-only effect; inactive = flat fitted curve, though single readings scatter. Potencies of inconclusive entries are left out as doubtful fits.

assay: qHTS for Inhibitors of human tyrosyl-DNA phosphodiesterase 1 (TDP1): qHTS in cells in absence of CPT; settings: DT40 Tdp1-/- hTDP1 cells, no CPT, ATP luminescence, 48 h; activity change, negative = growth inhibition: at 46.2 µM (top of the series) unless noted; note: nearly all actives have a fitted effect of over 55% in size
In short: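 A cellular qHTS used chicken DT40 cells lacking endogenous Tdp1 but carrying stably transfected human TDP1. Compounds were applied without camptothecin, and cell growth kinetics were judged by ATP-dependent luminescence after ≥48 hr.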
% is set by controls: 0 for no effect and ±100 for the full control effect; potency is the fitted concentration of half-maximal effect; tags give direction and shape of the fitted curve.

Compound	Potency	activity change, negative = growth inhibition
O=C(c1cnc2n(c1=O)CCS2)N(c1ccccc1)C1CCCCC1	inconclusive [inhibitor, partial curve]	
O=C(OCc1ccc(Cl)cc1Cl)c1ccncc1	inactive	
O=C(c1cc(=O)[nH]c2ccccc12)N1CCN(S(=O)(=O)c2ccc3ccccc3c2)CC1	inconclusive [inhibitor, partial curve]	
COc1ccc(C(=O)O/N=C(\N)c2ccccc2)c(OC)c1	inconclusive [inhibitor, single point]	
CCn1nc(C)c(Br)c1C(=O)Sc1ccccc1Cl	active: 4.61 µM	
CCOC(=O)C1CCCN(C(=O)c2sc(-c3ccccc3)nc2C)CC1 (stereo not drawn)	active: 14.6 µM	
Cc1ccccc1C(=O)NC1(C(F)(F)F)C(=O)Nc2c1c(=O)[nH]c(=O)n2CCc1ccccc1 (stereo not drawn)	inactive	
CCOc1ncccc1C(=O)Nc1ccc2c(c1)OCCO2	inconclusive [inhibitor, partial curve, poor fit]	
Cc1ccc(NC(=O)Cn2cc(C(=O)c3cccs3)c3ccccc32)cc1C	inconclusive [inhibitor, single point]	
Cc1nnsc1C(=O)N/N=C/c1c(F)cccc1Cl	inactive	
Cn1c(Nc2ccc(Cl)cc2F)nc2cc(-c3ccccc3)sc2c1=O	inconclusive [inhibitor, partial curve]	
CCCCCNC(=O)c1cccc(S(=O)(=O)N2CC3(C)CC2CC(C)(C)C3)c1 (stereo not drawn)	inconclusive [inhibitor, single point]	
CCSc1nc2c(c(=O)n1-c1ccc(F)cc1)SCC2	inconclusive [inhibitor, partial curve]	
CC(C)c1ccc2c(c1)C(N1CCN(C)CC1)Cc1cccnc1S2 (stereo not drawn)	inactive	
Cc1ccc(-n2c(=O)c3c(cnn3C)n(CC(=O)Nc3cc(C)ccc3C)c2=O)cc1	inactive	
CN(C)c1ccc(C(=O)Nc2nc3c(s2)CCCC3)cc1	inconclusive [inhibitor, single point]	
O=C(CCSCc1cnn(-c2ccccc2)c1-n1cccc1)NCc1ccc(Cl)cc1	inconclusive [inhibitor, single point]	
N/C(=N\N=C\c1ccc(O)c(O)c1)c1nonc1N	inconclusive [inhibitor, partial curve]	
CCCOc1ccc(C2NC(=O)NC(c3ccccc3)=C2C(C)=O)cc1OCC (stereo not drawn)	active: 23.1 µM	
Nc1[nH]c(N=NC(=O)c2ccccc2O)c2ccccc12	inconclusive [inhibitor, single point]	
Nc1ccccc1-c1ccn[nH]1	inactive	
CC1CCCN(C(=O)N2c3ccccc3Sc3ccccc32)C1 (stereo not drawn)	active: 13 µM	
CCn1c(SCC(=O)N2CCC(C)CC2)nc2c1c(=O)n(C)c(=O)n2C	inactive	
O=C(NC(=S)Nc1ccc(N2CCN(C(=O)c3ccccc3)CC2)cc1)c1cccs1	active: 25.9 µM	
O=C(c1cccs1)N(Cc1ccc(Cl)cc1)C1CCS(=O)(=O)C1 (stereo not drawn)	inactive	

Compound	Potency	activity change, negative = growth inhibition
Cc1cc(/C=C2\SC(=S)NC2=O)c(C)n1-c1ccccc1		inconclusive: -34.1% [inhibitor]
O=C(O)c1ccc(N2CC3CC(C2)c2cccc(=O)n2C3)c(NC(=S)Nc2ccc(Cl)cc2Cl)c1 (stereo not drawn)	inconclusive [inhibitor, partial curve]	
CC(C)(C)c1ccc2c(c1)C(=O)c1ccccc1C2=O	inconclusive [inhibitor, single point]	
CC(C)(C)c1ccc(C(=O)Cn2nc(C(=O)O)c3ccccc3c2=O)cc1	inconclusive [inhibitor, single point]	
O=C1c2ccccc2-c2nc3ccccc3n21	inconclusive [inhibitor, single point]	
O=C(CC(=O)Nc1ccc(Cl)c(Cl)c1)N/N=C/c1ccc(O)cc1	inconclusive [inhibitor, partial curve]	
COc1ccc(-c2ccc(SCC(=O)NCc3ccc4c(c3)OCO4)nn2)cc1OC	active: 29.1 µM	
COc1ccc(/C=N/NC(=O)C(O)(c2ccccc2)c2ccccc2)cc1OC		inconclusive: -34.1% [inhibitor]
CCNc1ncc2nc(CCc3ccccc3)c(=O)n(CCC#N)c2n1	inconclusive [inhibitor, single point]	
Cc1ccc(Nc2cc(C)nc(-c3ccccc3O)n2)cc1	inconclusive [inhibitor, partial curve]	
Cn1nc(-c2ccccc2)c(CO)c1Oc1cccc(C(F)(F)F)c1	inconclusive [inhibitor, single point]	
COc1cc(CN2CCc3c([nH]c4ccccc34)C2)cc(OC)c1	inconclusive [inhibitor, single point]	
CC12CCC(=O)N1C(C(=O)N1CCN(c3ccc(C(F)(F)F)cc3[N+](=O)[O-])CC1)CS2 (stereo not drawn)	active: 25.9 µM	
Cc1ccc(C(=O)N/C(=C\c2ccc(F)cc2)C(=O)NCCCn2ccnc2)cc1	inactive	
COc1cccc(NC(=O)CN(C)C(=O)c2cn(-c3ccccc3)nc2-c2cccs2)c1	inconclusive [inhibitor, single point]	
O=C(O)Cc1cn(Cc2ccc(F)cc2)c2ccccc12	inactive	
O=C(NCCS(=O)(=O)NCc1ccccn1)c1ccccc1	inactive	
O=C(c1ccccc1Sc1ccc([N+](=O)[O-])cc1)N1CCCCC1	inconclusive [inhibitor, single point]	
CC(=O)C1C=CC(C)(C(=O)O)C2C=C(C)C(=O)C(C)(O)C12 (stereo not drawn)	inactive	
CCCN(Cc1cccs1)C(=O)Nc1ccc(Br)c(C)c1	inconclusive [inhibitor, single point]	
Cc1ccc(NC(=O)c2cc(-c3ccco3)on2)cc1C	inconclusive [inhibitor, single point]	
CC1=C(C(=O)N2CCOCC2)CC(CC(=O)NCc2ccco2)C(=O)N1Cc1ccc(C(C)(C)C)cc1 (stereo not drawn)	active: 20.6 µM	
CCOc1ccc(NC(=O)CN2CCN(CC(=O)Nc3ccc(OC)cc3OC)CC2)cc1	inconclusive [inhibitor, single point]	
CC(C)Cn1c(-c2ccc(S(=O)(=O)N3CCCC3)cc2)csc1=Nc1ccccc1	active: 3.26 µM	
O=C(NCc1ccccc1)c1cc(-c2ccco2)on1	inconclusive [inhibitor, single point]	

Compound	Potency	activity change, negative = growth inhibition
CCOc1ccc(/C=C2\SC(N3CCc4ccccc4C3)=NC2=O)cc1	active: 20.6 µM	
NC(=O)C(c1cccc(Cl)c1)c1ncc(C(F)(F)F)cc1Cl (stereo not drawn)	inactive	
CCN(CC)c1cc2c(c3c1ccn3C)C1CCC2C1 (stereo not drawn)	inconclusive [inhibitor, single point]	
O=C(NCc1ccccc1F)C1CCCN1C(=O)Nc1cccc(F)c1 (stereo not drawn)	inactive	
CCCCOc1ccccc1NC(=O)Cn1c(-c2cncs2)nc2ccccc21	inconclusive [inhibitor, partial curve]	
Nc1nc(CSc2nnnn2-c2ccccc2)nc(N2CCCc3ccccc32)n1	inconclusive [inhibitor, single point]	
Cc1cccc(Nc2nc(N)c([N+](=O)[O-])c(N3CCN(C)CC3)n2)c1	inconclusive [inhibitor, single point]	
COc1ccc([C@@H]2C[C@@H](c3ccccc3)Oc3cc(C)cc(C)c32)cc1	inconclusive [inhibitor, partial curve]	
O=C(O)c1ccccc1C1=Nc2ccc(O)cc2Oc2cc(O)ccc21	inconclusive [inhibitor, single point]	
Cc1oc(-c2ccccc2)nc1CNS(=O)(=O)c1ccc(Cl)cc1	inactive	
OCCNCCCOc1cccc(Cl)c1Cl	active: 0.211 µM	
O=[N+]([O-])c1cc(/C=N/O)ccc1N1CCCC1	inactive	
O=C(NC1CC(=O)N(c2ccccc2)C1)c1cc2ccccc2o1 (stereo not drawn)	inconclusive [inhibitor, single point]	
CN1c2ccc(Cl)cc2C(=O)NC1C1CC=CCC1 (stereo not drawn)	inconclusive [inhibitor, single point]	
COc1ccc(Br)cc1S(=O)(=O)Nc1ncccc1C	inconclusive [inhibitor, single point]	
CC(=O)C1=C(C)OC(N)=C(C#N)C1c1cc2cccc(C)c2nc1Cl (stereo not drawn)	inconclusive [inhibitor, partial curve]	
CC(=O)N1c2ccc(S(=O)(=O)N3CCC(C(=O)NCc4ccccc4Cl)CC3)cc2CC1C (stereo not drawn)	inconclusive [inhibitor, partial curve]	
COc1ccc(OC)c(-n2cnc3cc(C(=O)NC4CCCC4)ccc32)c1	inconclusive [inhibitor, partial curve, poor fit]	
CCOC(=O)c1ccccc1NC(=O)Cn1cnc2c1c(=O)n(C)c(=O)n2C	inconclusive [inhibitor, single point]	
O=C(NCc1ccco1)c1cc(-c2ccccc2)on1	inconclusive [inhibitor, partial curve, poor fit]	
O=C(Nc1ccc(S(=O)(=O)Nc2cnc3ccccc3n2)cc1)c1cccc(OC(F)F)c1	inactive	
CCOc1ccc(-c2cc(C(=O)NCc3ccc(OC)cc3)c3c(-c4ccc(F)cc4)[nH]nc3n2)cc1	inactive	
CCOC(=O)c1ccc(Oc2nc(NC)nc(Nc3ccccc3)n2)cc1	inconclusive [inhibitor, partial curve]	
